The supplement of paper PMC3334620
Whole data set: some 33,000 sequences, median “E-score (-0.5 to 0.5)” near -0.036, cut for the highest 2% near 0.37. The list shows a part of the results.

molecular target: T1, Yer064c (UniProt P40041); test: PBM E-score (8-mer binding enrichment) (E-score (-0.5 to 0.5)); higher = stronger / more preferred TF binding; most listed sequences are background and not binding sites; details: protein concentration: 200 nM; construct: GST-full length
T1 sequence: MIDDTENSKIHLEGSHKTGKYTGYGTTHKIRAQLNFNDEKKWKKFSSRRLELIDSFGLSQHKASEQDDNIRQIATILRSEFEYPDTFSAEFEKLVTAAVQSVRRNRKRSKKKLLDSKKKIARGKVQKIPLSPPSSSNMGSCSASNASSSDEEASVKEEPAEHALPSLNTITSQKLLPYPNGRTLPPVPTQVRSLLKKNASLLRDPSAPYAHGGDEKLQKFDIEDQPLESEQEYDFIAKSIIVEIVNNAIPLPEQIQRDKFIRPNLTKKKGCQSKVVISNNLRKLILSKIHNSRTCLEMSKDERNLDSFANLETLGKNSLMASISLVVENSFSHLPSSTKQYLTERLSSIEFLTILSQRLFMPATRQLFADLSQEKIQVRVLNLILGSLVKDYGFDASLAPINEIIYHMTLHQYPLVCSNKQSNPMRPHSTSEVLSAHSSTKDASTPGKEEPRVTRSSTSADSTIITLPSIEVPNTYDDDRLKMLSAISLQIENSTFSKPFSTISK
Summary of the method: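 Full-length yeast transcription factors or their DNA-binding domains, GST-tagged and expressed with PURExpress, were applied at about 100-200 nM to universal all-10-mer Agilent arrays. These arrays had been made double-stranded by primer extension on fresh or once-stripped slides. Detection used fluorescent anti-GST, normalisation used masliner, and E-scores for ungapped eight-base words pooled with reverse complements came from the Universal PBM Analysis Suite.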

Sequence	PBM E-score
CAATACAA	-0.0296
GGTGCCTA	-0.293
GAGGAGAA	-0.214
CATAACTA	0.0523
CAGGGAGC	-0.0512
CTCAGTGC	0.0043
CTTAGCCA	0.289
CGGGTACG	-0.182
ACGAAGAG	0.118
AGAGCTAA	-0.0864
AAGGAGAA	-0.09
ATACTCTG	0.0259
ATAGTTGA	0.126
CCGGATGC	-0.224
ACCCAACA	-0.144
CTTGATTC	0.324
ATCTAATC	0.195
CTAGTAAG	0.0365
ACAGAAGG	-0.0367
CTTGAGTA	0.233
ATTTATAA	0.255
ACGCTACT	-0.181

Sequence	PBM E-score
AGATCATC	0.0903
CAGGCAGC	-0.235
ACAGCCTG	-0.0639
CGGCACAC	-0.0912
CATGATGG	0.0468
AGGTAGCC	-0.0747
GAAGCAGC	-0.24
CATATTGC	0.00639
CATCGGCC	-0.0369
ATTGTTGA	0.0448
AAGTAGTG	-0.157
ATAACACA	0.0301
ATGCAAGC	-0.174
AGTTAGAC	0.177
ATAGATCA	0.0787
GGTAGCAA	-0.309
TATCTAGA	0.228
AGTCAGAA	0.434
CTGGCAAC	-0.279
AAGTAATG	-0.00135
CGGACGGC	-0.233
ATGTGGCA	-0.0425

Sequence	PBM E-score
AGTTCGCC	-0.0208
AATGCTAG	-0.164
AAGCGATA	-0.0238
CGGAGATC	-0.102
CAACTCTA	-0.131
ACCTTATG	0.0672
TATGATGA	0.338
GTCAATAA	0.16
CGCTACAA	-0.05
AAGTTTTG	0.0171
CGAAACGA	-0.131
GCGGGCGA	-0.139
ATAGATGC	-0.182
AGATCTAC	-0.135
CAGTCGGA	0.118
CTACTAAA	0.00127
CTTGGTTA	0.122
CTGAGTGC	-0.0835
GACCCGTA	-0.118
CCGGGCCA	-0.254
GTAAAGCA	0.025
ATAAATAC	-0.0305

Sequence	PBM E-score
ACGCGTTC	-0.0581
AAATAATC	0.252
CGACTCCG	0.332
TGGGCAAA	-0.208
CTAAAATA	0.0736
AAAGCGCA	-0.244
GAGCCATC	0.342
CCCTCCCG	-0.282
CCACGAAA	-0.12
TTACTCAA	0.272
AACTCCCG	-0.237
ATGAAAGA	0.125
CATGCCAA	-0.0235
ACTCGGCC	0.0413
CTTCCCCC	-0.281
ATGCATAC	-0.244
AGCCATAG	0.199
AGTGGTGA	-0.0291
ACAAAACA	0.0934
CCGGACGC	-0.192
GTTATAAA	0.13
CTCACAGA	0.166

Sequence	PBM E-score
ATGTAGTG	0.0118
AAGACTTG	0.165
GTTAGTAA	0.23
AGTTGCAG	-0.112
CTGCGCCC	-0.208
ACTTGATA	0.104
CCTTTACC	-0.149
CGATTGCG	-0.0158
AAGCTCCC	-0.327
GGTTATGA	0.164
GGTGATCA	0.249
CAGGCTCA	0.00191
AACCAGTT	0.0937
AGCGCCGG	-0.0466
GGCTAAGA	0.0902
TACTGAAA	0.069
ACGGAGTA	-0.0195
AGACATTG	0.0501
GCCCCGAC	-0.0848
CGTACACC	-0.204
AAAGGGCT	-0.071
